Laboratory results taken from the supplement of paper PMC4723716.
± gives the uncertainty stated by the source. Whole data set: some 9,900 compounds, median “viability index relative to DMSO control” near 1, cut for the lowest 2% near 0.85. Some of the results follow.

The compounds below were run on Plasmodium falciparum NF54 stage V gametocytes (assay: viability index relative to DMSO control (fraction); higher = less gametocyte killing). Conditions: 2.5 µM, library set: Broad Institute DOS, incubation time: 72 h.
Experimental: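 Broad DOS informer set and blood-stage-active DOS compounds screened in duplicate at 2.5 µM against P. falciparum NF54 stage V gametocytes with the serum-free one-step SaLSSA (1536-well): 72 h at 37 °C under low oxygen, then saponin lysis and MitoTracker Red CMXRos staining, with high-content imaging. Viability index = viable-object count divided by the plate mean of DMSO wells (0 = killed, about 1 = inactive).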

Row | Structure (SMILES) | viability index
1 | C[C@H](CO)N1C[C@H](C)[C@@H](CN(C)Cc2ccc(Oc3ccccc3)cc2)Oc2c(NC(=O)CCC(F)(F)F)cccc2C1=O | 0.888 ± 0.11
2 | C[C@@H]1CN([C@@H](C)CO)C(=O)c2ccccc2-c2ccccc2CO[C@@H]1CN(C)Cc1ccc(Oc2ccccc2)cc1 | 0.871 ± 0.0091
3 | O=C(Nc1cc(F)ccc1F)N1[C@@H]2CNC[C@H]1[C@@H]2c1ccc(/C=C/c2ccccc2)cc1 | 1.03 ± 0.028
4 | C[C@@H](NC(=O)C[C@H]1C[C@H]2c3cc(NS(=O)(=O)c4ccc(F)cc4)ccc3O[C@H]2[C@@H](CO)O1)c1ccccc1 | 1.08 ± 0.027
5 | Cc1ccccc1-c1ccc([C@H]2[C@H]3CNC[C@@H]2N3Cc2cccnc2)cc1 | 1.09 ± 0.037
6 | Cc1ccc(S(=O)(=O)N[C@@H]2C=C[C@H](CC(=O)NCc3ccc(Cl)c(Cl)c3)O[C@H]2CO)cc1 | 1.03 ± 0.058
7 | Cc1ccc(CN2CC(=O)N3[C@H](CO)[C@H](c4ccc(-c5ccccc5F)cc4)[C@@H]3C2)cc1 | 1.1 ± 0.023
8 | COc1cccc(S(=O)(=O)N2CCCCN3[C@H](CO)[C@H](c4ccc(C#CCC(C)C)cc4)[C@H]3C2)c1 | 0.6428 ± 0.0032
9 | N#C[C@@H]1[C@@H](c2ccccc2C2=CCCCC2)[C@@H](CO)N1C(=O)c1ccccn1 | 1.01 ± 0.096
10 | OC[C@@H]1[C@@H](c2ccc(-c3cccc(F)c3)cc2)[C@@H]2CN(Cc3cncnc3)CCCCN12 | 0.968 ± 0.048
11 | O=C(C[C@@H]1CC[C@H]2[C@@H](COC[C@H](O)CN2Cc2cccc(Cl)c2)O1)NCc1cccc(F)c1 | 1 ± 0.051
12 | Cc1ccc(S(=O)(=O)Nc2cccc3c2O[C@H](CN(C)C(=O)Nc2ccc(C(F)(F)F)cc2)[C@@H](C)CN([C@H](C)CO)C3=O)cc1 | 1.02 ± 0.029
13 | C[C@@H]1CN([C@@H](C)CO)C(=O)c2cc(NC(=O)Nc3cccc4ccccc34)ccc2O[C@@H](C)CCCCO[C@@H]1CN(C)S(=O)(=O)c1cn(C)cn1 | 0.949 ± 0.081
14 | CCC(=O)N1C[C@@H](O)COC[C@H]2O[C@@H](CC(=O)NCc3ccc(Oc4ccccc4)cc3)CC[C@@H]21 | 1 ± 0.043
15 | COc1ccc2c3c([C@@H](CO)N(C)C[C@]33CCN(CC3)C(=O)c3ccc4OCOc4c3)n(C)c2c1 | 0.9516 ± 0.0011
16 | O=C(C1CCOCC1)N1CC(=O)N2[C@@H](CO)[C@@H](c3ccc(-c4cccnc4)cc3)[C@@H]2C1 | 1.04 ± 0.028
17 | CC(C)C#Cc1ccc([C@@H]2[C@@H](CO)N(C(=O)c3cccc(F)c3)[C@H]2C#N)cc1 | 1.17 ± 0.073
18 | N#C[C@H]1[C@H](c2ccccc2)[C@H](CO)N1C(=O)CCN1CCCCC1 | 1.03 ± 0.068
19 | CC(C)(O)C#Cc1ccc([C@H]2[C@H]3CN(S(C)(=O)=O)CCCCN3[C@H]2CO)cc1 | 1.03 ± 0.037
